Our source for the cell count values is the supplement of paper PMC4604168 (melanoma cell lines).

The other results are listed elsewhere or left out. Repeats are few or missing, and single values can be far off.
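Note: cells treated in 1,536-well plates, then fixed and DAPI-stained, with nuclei counted from automated high-throughput microscope images.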

In this test the test system is A375. As to the kind of experiment: cell count relative to DMSO control; melanoma cells; higher = more viable cells. The conditions noted are these: library dose: standard library concentration; 72 h.
Compound `COc1cc(Nc2ncc(F)c(Nc3ccc4c(n3)NC(=O)C(C)(C)O4)n2)cc(OC)c1OC` [Tamatinib] + O=C(Nc1ccccc1)c1cc([N+](=O)[O-])ccc1Cl [GW9662] (first compound 2 µM, partner dose 10 µM) returned a cell count of 111%. Compound `CC1(C)NC(=O)N(c2ccc([N+](=O)[O-])c(C(F)(F)F)c2)C1=O` [nilutamide] + CCN(CC)CCCCNc1ncc2cc(-c3cc(OC)cc(OC)c3)c(NC(=O)NC(C)(C)C)nc2n1 [PD173074] (first compound 5 µM, partner dose 0.5 µM) gave a cell count of 89.5%. The result for `Cn1cncc1[C@@](N)(c1ccc(Cl)cc1)c1ccc2c(c1)c(-c1cccc(Cl)c1)cc(=O)n2C` [tipifarnib] + COc1cc(N2CCC(N3CCN(C)CC3)CC2)ccc1Nc1ncc(Cl)c(Nc2ccccc2S(=O)(=O)C(C)C)n1 [NVP-TAE684] (first compound 0.05 µM, partner dose 0.4 µM) reads 79.4%; that for `C[C@@H]1CCN(C(=O)CC#N)C[C@@H]1N(C)c1ncnc2[nH]ccc12` + Cn1cc(/C=C2\C(=O)Nc3cccnc32)c2ccccc21 [GW441756] (first compound 5 µM, partner dose 2 µM), 134%. On to `CC1(C)NC(=O)N(c2ccc([N+](=O)[O-])c(C(F)(F)F)c2)C1=O` [nilutamide] + COc1cc2ncnc(Nc3ccc(Oc4ccccc4)cc3)c2cc1OC [SrcI1] (first compound 5 µM, partner dose 10 µM), for which the cell count turned out to be 152%. Compound `Cn1cncc1[C@@](N)(c1ccc(Cl)cc1)c1ccc2c(c1)c(-c1cccc(Cl)c1)cc(=O)n2C` [tipifarnib] + O=C(O)C(=O)Nc1sc2c(c1C(=O)O)CCNC2 [TCS401] (first compound 0.05 µM, partner dose 8.33333 µM) came in with a cell count of 148%. Compound `O=c1[nH]nc(Sc2ncc([N+](=O)[O-])s2)n1-c1ccc2c(c1)OCCO2` + Oc1nc(-c2ccc(C(F)(F)F)cc2)nc2c1CSCC2 [XAV939] (first compound 1 µM, partner dose 10 µM) came in with a cell count of 97.1%.
